Test results reported in PubChem BioAssay AID2675 (National Center for Advancing Translational Sciences (NCATS), 2010).
About 100 (0.036%) of roughly 280,000 compounds were called active. The shares of active, inactive and inconclusive entries below differ from those in the screen. The call rests on the fitted dose curve; in most records, active means well fitted inhibition curve with a large enough effect in the signal ratio, with a control signal flat (not every such curve was filed as active); inconclusive means small, poorly fitted or top-dose-only effect, or effect the other way, or a change in a side signal; inactive means no such curve, though single readings can be large or run the other way; the % refers to the signal ratio. Potencies beside an inconclusive call are fits to weak or partial responses and may not hold up. “Side channel” marks fits to a control or component signal instead of the main read-out.

Target: Muscleblind-like protein 1 (Homo sapiens) (UniProt Q9NR56)
Chain of UniProt Q9NR56 (Q9NR56 whole entry, looked up): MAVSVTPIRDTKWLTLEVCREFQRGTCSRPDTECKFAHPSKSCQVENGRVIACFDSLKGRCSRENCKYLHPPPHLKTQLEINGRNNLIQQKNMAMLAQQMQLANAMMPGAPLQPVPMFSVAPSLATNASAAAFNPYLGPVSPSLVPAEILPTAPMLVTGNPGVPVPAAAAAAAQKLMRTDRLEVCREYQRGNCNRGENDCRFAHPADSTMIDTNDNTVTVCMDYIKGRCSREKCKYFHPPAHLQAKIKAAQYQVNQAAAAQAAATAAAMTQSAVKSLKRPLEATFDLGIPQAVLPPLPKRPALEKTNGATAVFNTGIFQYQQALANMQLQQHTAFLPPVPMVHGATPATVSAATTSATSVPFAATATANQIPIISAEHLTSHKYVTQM
Test: qHTS Assay for Inhibitors of MBNL1-poly(CUG) RNA binding
Conditions: TR-FRET MBNL1-His/biotin-(CUG)12 binding, 665/545 ratio; series mostly up to 57.5 µM
Summary of the method: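 Compounds (final 92 nM to 58 uM) are added to His-tagged MBNL1 and biotin-(CUG)12, then terbium anti-His antibody and streptavidin-XL665 (5 nM final). After 60 min at room temperature, the 665/545 nm ratio is read.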
Potency means the concentration at half of the fitted maximal effect; tags describe the fitted curve by direction and shape or compound fluorescence and quenching.

| Structure (SMILES) | Potency |
| --- | --- |
| O=C(c1ccccc1Sc1ccc([N+](=O)[O-])cc1)N1CCCCC1 | inconclusive: 20 µM [quencher, side channel, single point] |
| CCCN1CCN(CCCNC(=O)CN2C(=O)c3cccnc3Oc3ccc(Cl)cc32)CC1 | inconclusive: 5.62 µM [fluorescent, side channel, single point] |
| COc1ccc(/C=N/NC(=O)C(O)(c2ccccc2)c2ccccc2)cc1OC | inconclusive: 31.6 µM [quencher, side channel, single point] |
| Cc1ccc2nc(/C(C#N)=C\c3cc(O)ccc3[N+](=O)[O-])[nH]c2c1 | inconclusive: 15.8 µM [quencher, side channel, partial curve] |
| COc1ccc(C(=O)Nc2c(C)ccc3nsnc23)cc1[N+](=O)[O-] | inconclusive: 11.2 µM [quencher, side channel, partial curve] |
| CN(CC(=O)Nc1ccc(Cl)c(S(=O)(=O)N(C)C)c1)Cc1ccccc1 | inactive |
| CC1CCN(CC(CS(=O)(=O)c2ccc([N+](=O)[O-])cc2)N2CCC(C)CC2)CC1 (centres undefined) | inconclusive: 14.1 µM [quencher, side channel, partial curve] |
| CCOC(=O)Nc1nc(-c2ccc(Cl)cc2Cl)cs1 | inactive |
| O=C1C2=C(c3ccccc31)[N+](=O)[C@@H]1CCCC[C@@H]1N2[O-] | inconclusive: 11.2 µM [quencher, side channel, partial curve] |
| CCNC(=O)c1c(O)c2c([nH]c1=O)CCCC2 | inconclusive: 35.5 µM [fluorescent, side channel, single point] |
| O=C(N/C(=C\c1ccc(-c2ccccc2)o1)C(=O)N1CCOCC1)c1ccccc1 | inconclusive: 22.4 µM [quencher, side channel, single point] |
| CN(C)CCCO/N=C(\c1ccccc1)c1ccncc1 | inconclusive: 0.316 µM [fluorescent, side channel, full curve] |
| O=[N+]([O-])c1ccc(Sc2ccccc2)nc1 | inconclusive: 10 µM [quencher, side channel, partial curve] |
| O=C(c1cc(=O)[nH]c2ccccc12)N1CCN(S(=O)(=O)c2ccc3ccccc3c2)CC1 | inactive |
| O=C(O)c1cc2ccc3cccc4ccc(c1)c2c34 | inactive |
| Cc1ccc(OCC(=O)NC(C)c2ccc(Cl)c(Cl)c2)c([N+](=O)[O-])n1 (centres undefined) | inconclusive: 22.4 µM [quencher, side channel, partial curve] |
| O=C1N/C(=N/O)S/C1=C/c1cccc([N+](=O)[O-])c1 | inconclusive: 17.8 µM [quencher, side channel, partial curve] |
| CC(=O)Oc1ccc(/C=C(\NC(=O)c2ccco2)C(=O)Nc2ccc(C(C)=O)cc2)cc1 | inconclusive: 20 µM [quencher, side channel, single point] |
| CCOCCCNC(=O)c1ccc2c(c1)ncn2C1CCCC1 | inactive |
| COc1ccccc1NS(=O)(=O)c1cc(NC(=O)Nc2ccc(Cl)cc2Cl)ccc1N1CCCCC1 | inactive |

| Structure (SMILES) | Potency |
| --- | --- |
| O=[N+]([O-])c1ccc(S(=O)(=O)CC(CN2CCOCC2)N2CCOCC2)cc1 (centres undefined) | inconclusive: 3.16 µM [quencher, side channel, full curve] |
| Cc1cccc(N(C(=O)Cn2nnc(-c3ccccc3F)n2)C(C(=O)NC(C)(C)C)c2ccncc2)c1 (centres undefined) | inactive |
| CCc1nc(N[C@H](C(=O)O)C(C)C)c2oc3ccccc3c2n1 | inactive |
| O=[N+]([O-])c1cc(-c2nc(-c3ccncc3)no2)ccc1Cl | inconclusive: 10 µM [quencher, side channel, partial curve] |
| CCn1c(NCc2cc(OC)ccc2OC)nc2ccccc21 | inactive |
| CC1CCCN(C(=O)c2ccc3c(c2NCCO)C(=O)c2ccccc2C3=O)C1 (centres undefined) | inconclusive: 10 µM [quencher, side channel, partial curve] |
| CC(C)Nc1ccc(C(CC(N)=O)NC(=O)Cc2ccc(Br)cc2)cc1[N+](=O)[O-] (centres undefined) | inconclusive: 5.01 µM [quencher, side channel, full curve, poor fit] |
| O=C(O)c1cccc(NC(=O)c2ccccc2NC(=O)c2cccc([N+](=O)[O-])c2)c1 | inconclusive: 11.2 µM [quencher, side channel, partial curve] |
| O=C(CN1CCCCC1)Nc1ccc(S(=O)(=O)NC2CCCCC2)cc1 | inactive |
| Cc1ccc(Cn2cccc2/C=C2/C(=N)N3C=CSC3=NC2=O)cc1 | inactive |
| Cn1c(CN2CCN(S(C)(=O)=O)CC2)nc2cc([N+](=O)[O-])ccc21 | inconclusive: 28.2 µM [quencher, side channel, single point] |
| CCOC(=O)c1c(C)n(-c2ccc(C)cc2)c2ccc(OCC(O)CN3CCN(C)CC3)cc12 (centres undefined) | inconclusive: 0.708 µM [fluorescent, side channel, single point] |
| C=CCN1C(=O)c2ccc(C(=O)N3CCN(S(=O)(=O)c4cccc(Cl)c4)CC3)cc2C1=O | inconclusive: 28.2 µM [quencher, side channel, partial curve] |
| O=C(NCc1ccccc1)c1cc(-c2ccncc2)nc2ccc(S(=O)(=O)N3CCOCC3)cc12 | inconclusive: 2.82 µM [quencher, side channel, full curve] |
| Cc1cc(C)c2c(N)c(C(=O)NN3CC(=O)N(c4ccccc4F)CC3=O)sc2n1 | inconclusive: 39.8 µM [quencher, side channel, single point] |
| Cc1c(NC(=O)/C(C#N)=C/c2cccs2)c(=O)n(-c2ccccc2)n1C | inconclusive: 31.6 µM [quencher, side channel, partial curve] |
| CCCCN(CC)S(=O)(=O)c1ccc(C(=O)Nc2nnc(-c3cccs3)o2)cc1 | inactive |
| COc1ccc(C(=O)C(OC(=O)c2ccccc2Cl)c2ccccc2)cc1 (centres undefined) | inconclusive: 0.1 µM [fluorescent, side channel, full curve] |
| COc1ccc(/C=N/N(C)c2cc(=O)n(C)c(=O)[nH]2)cc1OC | inconclusive: 31.6 µM [quencher, side channel, single point] |
| COc1ccc(-c2cc(=O)oc3cc(OCC(=O)NCC4CCC(C(=O)O)CC4)ccc23)cc1 (centres undefined) | inconclusive: 17.8 µM [quencher, side channel, partial curve] |

| Structure (SMILES) | Potency |
| --- | --- |
| CCCn1c2ccccc2c2nnc(SCCN3CCOCC3)nc21 | inconclusive: 25.1 µM [quencher, side channel, partial curve] |
| Nc1cc([N+](=O)[O-])ccc1Nc1ccc(O)cc1 | inconclusive: 11.2 µM [quencher, side channel, partial curve] |
| COc1cccc(-c2c(C(=O)N/N=C/c3sccc3C)nnn2-c2nonc2N)c1 | inconclusive: 22.4 µM [quencher, side channel, single point] |
| COc1ccc(CCNC(=O)COc2ccc(C)nc2[N+](=O)[O-])cc1 | inconclusive: 17.8 µM [quencher, side channel, partial curve] |
| COCCNC(=O)/C(C#N)=C/C=C/c1ccccc1 | inconclusive: 15.8 µM [quencher, side channel, partial curve] |
| Cc1nc(-c2ccc(S(=O)(=O)Nc3cccc(Cl)c3)cc2)co1 | inconclusive: 0.562 µM [quencher, full curve] |
| CCc1nc(Nc2cccc(OC)c2)c2oc3ccccc3c2n1 | inconclusive: 35.5 µM [fluorescent, side channel, single point] |
| O=C(O)c1cc(/C=C/c2ccc(N3CCOCC3)cc2)nc2ccccc12 | inconclusive: 14.1 µM [quencher, side channel, partial curve] |
| N=c1c(-c2nc3ccccc3[nH]2)cc(C(=O)c2ccco2)nn1-c1ccccc1 | inconclusive: 4.47 µM [quencher, side channel, full curve] |
| COc1ccccc1C(=O)Nc1cccc(SC)c1 | inconclusive: 2.82 µM [quencher, side channel, partial curve] |
| CCn1c(=O)n(CC)c2cc([N+](=O)[O-])ccc21 | inconclusive: 22.4 µM [quencher, side channel, partial curve] |
| C=C(C)COc1ccc2c(CC)cc(=O)oc2c1 | inactive |
| CC(C)(C)c1cc(NCc2ccccn2)n2ncc(-c3ccccc3)c2n1 | inactive |
| CCOC(=O)CSc1ccc(C(=O)N2CCN(C)CC2)cc1[N+](=O)[O-] | inconclusive: 14.1 µM [quencher, side channel, partial curve] |
| O=P(CCCCCCCCCP(=O)(c1ccccc1)c1ccccc1)(c1ccccc1)c1ccccc1 | inconclusive: 28.2 µM [quencher, side channel, single point] |
| O=C(/C=C/c1ccc(-c2ccc(F)cc2)o1)N1CCCC1 | inconclusive: 31.6 µM [quencher, side channel, single point] |
| CCCCCC(=O)N1CC2(CC(c3cccc(NC(=O)COc4ccc(Cl)cc4)c3)=NO2)C[C@@H]1C(N)=O (some centres undefined) | inactive |
| CC1CC(C)CN(S(=O)(=O)c2cccc3nonc23)C1 (centres undefined) | inconclusive: 17.8 µM [quencher, side channel, partial curve] |
| CCOC(=O)COc1ccccc1/C=C1\NC(=O)NC1=O | inconclusive: 14.1 µM [quencher, side channel, partial curve] |
